# Assays:
# [1] = biological target: the molecule itself; assay: SEC
# [2] = biological target: GST-APC-C (aa 2167-2843) (UniProt P25054 in part); assay: pull-down
# UniProt P25054, sequence (P25054 2167-2843): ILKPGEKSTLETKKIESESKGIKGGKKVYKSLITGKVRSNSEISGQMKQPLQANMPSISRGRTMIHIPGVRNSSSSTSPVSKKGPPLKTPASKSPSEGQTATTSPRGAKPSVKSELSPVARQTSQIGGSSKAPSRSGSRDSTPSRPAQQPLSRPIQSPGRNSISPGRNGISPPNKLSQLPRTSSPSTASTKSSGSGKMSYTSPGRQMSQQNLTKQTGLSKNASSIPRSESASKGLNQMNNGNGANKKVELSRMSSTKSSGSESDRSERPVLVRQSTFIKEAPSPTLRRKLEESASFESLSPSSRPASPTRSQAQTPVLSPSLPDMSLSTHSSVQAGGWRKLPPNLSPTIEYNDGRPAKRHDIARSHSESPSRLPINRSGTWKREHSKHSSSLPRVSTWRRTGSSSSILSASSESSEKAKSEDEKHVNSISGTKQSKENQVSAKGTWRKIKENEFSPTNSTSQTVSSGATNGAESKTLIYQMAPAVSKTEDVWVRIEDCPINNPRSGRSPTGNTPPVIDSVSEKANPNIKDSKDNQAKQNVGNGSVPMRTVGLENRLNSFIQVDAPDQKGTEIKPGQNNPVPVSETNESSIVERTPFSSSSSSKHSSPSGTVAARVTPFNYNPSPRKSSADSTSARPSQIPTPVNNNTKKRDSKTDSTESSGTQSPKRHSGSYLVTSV
binding result [2],Binder,stoichiometry N [1]
binds,"His-FH1FH2mDia2, wild type ([…]) (domain or fragment) not shown",2
binds,I704A His-FH1FH2mDia2 (domain or fragment) not shown,2
binds,K853A His-FH1FH2mDia2 (domain or fragment) not shown,

# Source: publication PMC2364705 (The Journal of Cell Biology, 2008)
